Test system: writhing syndrome
Test: Analgesic activity: antagonism to acetic acid writhing syndrome in mice (Experiment J)
Type: in vivo, mice (dd strain male)
Experimental: Analgesic activity of the compound of the present invention in comparison with the known compounds.
Analgesic activity of the compound was tested as the measure of antagonism to writhing syndrome appeared when 0.1 ml/10g of 0.7% acetic acid was intraperitoneally injected to the dd strain male mice having 17 - 20 grs. body weight which had been abstinence from food for 18 hours.
The compounds under test were orally administered in a form of suspension in a 5% aqueous solution of gum arabic. After one hour from the administration, the onset times required for the writhing syndrome were scored.
In another Experiment in the combined use of the compounds under test and Codeine phosphate, 10 - 20 mg/kg of Codeine phosphate were orally administered immediatly after the oral administration of the compounds under test.

COc1ccc2c3c1O[C@H]1[C@@H](O)C=C[C@H]4[C@@H](C2)N(C)CC[C@@]341 [Codeine Phosphate]
Onset time of writhing syndrome, mean ± S.E. (control line (5% G.A.) with Codeine Phosphate 10 mg/kg): 4.8 ± 0.5 min
Onset time of writhing syndrome, mean ± S.E. (control line (5% G.A.) with Codeine Phosphate 20 mg/kg): 5.7 ± 0.6 min
